# Over roughly 2,900 compounds, “NF-kB SEAP reporter activity, fold change vs agonist alone” has its median near 0.99; the highest 2% begin near 2.6. The list shows a part of the results.
# How the values were obtained:
# [1] = test system: RAW-Dual; experiment: NF-kB SEAP reporter activity, fold change vs agonist alone; higher = enhanced NF-kB activity; settings: library stock concentration (final ~1000-fold dilution): 10 mM
# How it was run: (§1)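 Reporter activity is given as fold change relative to agonist-alone wells. To measure it, 50 nL of library stock was pin-tooled onto RAW-Dual macrophages (50,000 cells/well, DMEM, 384-well plates), a PRR agonist followed 1 h later, and cells stayed at 37 °C, 5% CO2. Twenty hours on, supernatant was assayed for IRF (QuantiLuc luminescence) and NF-κB (QuantiBlue, 620 nm absorbance), and wells under 70% of agonist-control IncuCyte confluency in both mask sets were marked cytotoxic.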
# [2] = test system: RAW-Dual; experiment: NF-kB SEAP reporter activity, fold change vs agonist alone; cytotoxicity flag (confluency mask): not cytotoxic; higher = enhanced NF-kB activity
# How it was run: as §1
# [3] = test system: RAW-Dual; experiment: NF-kB SEAP reporter activity, fold change vs agonist alone; cytotoxicity flag (confluency mask): cytotoxic (confluency <70% of control); higher = enhanced NF-kB activity
# How it was run: as §1
# [4] = cytotoxicity flag (confluency mask): not cytotoxic, agonist: Imiquimod (TLR7) […]
# [5] = cytotoxicity flag (confluency mask): not cytotoxic, agonist: MPLA (TLR4) […]
# [6] = agonist: ODN 1826 (TLR9) 0.5 ug/mL
# [7] = agonist: Pam2CSK4 (TLR2/6) 0.1 ug/mL
# [8] = agonist: Pam3CSK4 (TLR2/1) 0.1 ug/mL
structure (smiles),measurement,setting,value
Cl.NCCc1ccc(S(=O)(=O)F)cc1,NF-kB SEAP reporter activity,[1]; [4],1.07
same,NF-kB SEAP reporter activity,[1]; [5],1.23
Cl.NCCc1ccc(S(=O)(=O)F)cc1 (library stock concentration (final ~1000-fold dilution): 10 mM),NF-kB SEAP reporter activity,[2]; agonist: LPS (TLR4) 0.1 ug/mL,1.6
same,NF-kB SEAP reporter activity,[2]; [6],1.01
same,NF-kB SEAP reporter activity,[2]; [7],1.03
same,NF-kB SEAP reporter activity,[2]; [8],1.9
COc1ccc(O)c(C(C)(C)C)c1,NF-kB SEAP reporter activity,[1]; [4],0.901
same,NF-kB SEAP reporter activity,[1]; [5],0.958
COc1ccc(O)c(C(C)(C)C)c1 (library stock concentration (final ~1000-fold dilution): 10 mM),NF-kB SEAP reporter activity,[2]; agonist: LPS (TLR4) 0.1 ug/mL,0.929
same,NF-kB SEAP reporter activity,[2]; [6],0.665
same,NF-kB SEAP reporter activity,[2]; [7],0.786
same,NF-kB SEAP reporter activity,[2]; [8],0.695
COc1ccc2c3c([nH]c2c1)C(C)=NCC3 (library stock concentration (final ~1000-fold dilution): 10 mM),NF-kB SEAP reporter activity,[2]; agonist: LPS (TLR4) 0.1 ug/mL,0.902
same,NF-kB SEAP reporter activity,[2]; [6],0.237
same,NF-kB SEAP reporter activity,[2]; [7],1.02
same,NF-kB SEAP reporter activity,[2]; [8],1.05
COc1ccc2c3c([nH]c2c1)C(C)=NCC3,NF-kB SEAP reporter activity,[1]; [5],1.09
CCC(C)C(NC(=O)C(C(C)CC)N(C)C(C)=O)C(=O)NC(=O)C(NC(CC(C)C)C(=O)C1(C)CO1)C(C)O (stereo unspecified) (library stock concentration (final ~1000-fold dilution): 10 mM),NF-kB SEAP reporter activity,[2]; agonist: LPS (TLR4) 0.1 ug/mL,0.773
same,NF-kB SEAP reporter activity,[2]; [6],1.17
same,NF-kB SEAP reporter activity,[2]; [7],0.28
same,NF-kB SEAP reporter activity,[2]; [8],0.51
CCC(C)C(NC(=O)C(C(C)CC)N(C)C(C)=O)C(=O)NC(=O)C(NC(CC(C)C)C(=O)C1(C)CO1)C(C)O (stereo unspecified),NF-kB SEAP reporter activity,[1]; [4],2.27
same,NF-kB SEAP reporter activity,[1]; [5],1.06
O=C(Oc1ccc([N+](=O)[O-])cc1)N1CCC(C(O)(c2ccc3c(c2)OCO3)c2ccc3c(c2)OCO3)CC1 (library stock concentration (final ~1000-fold dilution): 10 mM),NF-kB SEAP reporter activity,[2]; agonist: LPS (TLR4) 0.1 ug/mL,0.723
same,NF-kB SEAP reporter activity,[2]; [6],0.521
same,NF-kB SEAP reporter activity,[2]; [7],0.695
same,NF-kB SEAP reporter activity,[2]; [8],0.61
O=C(Oc1ccc([N+](=O)[O-])cc1)N1CCC(C(O)(c2ccc3c(c2)OCO3)c2ccc3c(c2)OCO3)CC1,NF-kB SEAP reporter activity,[1]; [5],0.794
CC1CCC2C(C)C3CCC4C(CC5C4CC(O)C4CC(O)CCC45C)C3CN2C1 (stereo unspecified) (library stock concentration (final ~1000-fold dilution): 10 mM),NF-kB SEAP reporter activity,[2]; agonist: LPS (TLR4) 0.1 ug/mL,1.15
same,NF-kB SEAP reporter activity,[2]; [6],0.753
same,NF-kB SEAP reporter activity,[2]; [7],0.965
same,NF-kB SEAP reporter activity,[2]; [8],0.935
CC1CCC2C(C)C3CCC4C(CC5C4CC(O)C4CC(O)CCC45C)C3CN2C1 (stereo unspecified),NF-kB SEAP reporter activity,[1]; [4],0.845
same,NF-kB SEAP reporter activity,[1]; [5],1.03
COc1cc2c(cc1OC)C1CC(=O)C(CC(C)C)CN1CC2 (stereo unspecified),NF-kB SEAP reporter activity,[1]; [4],0.786
same,NF-kB SEAP reporter activity,[1]; [5],0.826
COc1cc2c(cc1OC)C1CC(=O)C(CC(C)C)CN1CC2 (stereo unspecified) (library stock concentration (final ~1000-fold dilution): 10 mM),NF-kB SEAP reporter activity,[2]; agonist: LPS (TLR4) 0.1 ug/mL,1.08
same,NF-kB SEAP reporter activity,[2]; [6],1.02
same,NF-kB SEAP reporter activity,[2]; [7],0.98
same,NF-kB SEAP reporter activity,[2]; [8],1.05
CN1CCc2cc3c(cc2C1C1OC(=O)c2c1ccc1c2OCO1)OCO3 (stereo unspecified),NF-kB SEAP reporter activity,[1]; [4],0.942
same,NF-kB SEAP reporter activity,[1]; [5],1.19
CN1CCc2cc3c(cc2C1C1OC(=O)c2c1ccc1c2OCO1)OCO3 (stereo unspecified) (library stock concentration (final ~1000-fold dilution): 10 mM),NF-kB SEAP reporter activity,[2]; agonist: LPS (TLR4) 0.1 ug/mL,1.19
same,NF-kB SEAP reporter activity,[2]; [6],0.98
same,NF-kB SEAP reporter activity,[2]; [7],1.04
same,NF-kB SEAP reporter activity,[2]; [8],1.02
CCc1c2c(nc3ccccc13)-c1cc3c(c(=O)n1C2)COC(=O)C3(O)CC (stereo unspecified),NF-kB SEAP reporter activity,"[1]; cytotoxicity flag (confluency mask): cytotoxic (confluency <70% of control), agonist: MPLA (TLR4) […]",1.62
CCc1c2c(nc3ccccc13)-c1cc3c(c(=O)n1C2)COC(=O)C3(O)CC (stereo unspecified) (library stock concentration (final ~1000-fold dilution): 10 mM),NF-kB SEAP reporter activity,[3]; agonist: LPS (TLR4) 0.1 ug/mL,0.384
same,NF-kB SEAP reporter activity,[3]; [6],2.29
same,NF-kB SEAP reporter activity,[3]; [7],0.788
same,NF-kB SEAP reporter activity,[3]; [8],0.641
Br.COc1ccc2c(c1)C13CCCCC1C(C2)N(C)CC3.O (stereo unspecified),NF-kB SEAP reporter activity,[1]; [5],0.902
Br.COc1ccc2c(c1)C13CCCCC1C(C2)N(C)CC3.O (stereo unspecified) (library stock concentration (final ~1000-fold dilution): 10 mM),NF-kB SEAP reporter activity,[2]; agonist: LPS (TLR4) 0.1 ug/mL,0.802
same,NF-kB SEAP reporter activity,[2]; [6],0.615
same,NF-kB SEAP reporter activity,[2]; [7],0.806
same,NF-kB SEAP reporter activity,[2]; [8],0.824
O=S(=O)(F)Cc1ccccc1 (library stock concentration (final ~1000-fold dilution): 10 mM),NF-kB SEAP reporter activity,[2]; agonist: LPS (TLR4) 0.1 ug/mL,1.13
same,NF-kB SEAP reporter activity,[2]; [6],1.07
same,NF-kB SEAP reporter activity,[2]; [7],1.03
same,NF-kB SEAP reporter activity,[2]; [8],1.07
O=S(=O)(F)Cc1ccccc1,NF-kB SEAP reporter activity,[1]; [4],1.11
same,NF-kB SEAP reporter activity,[1]; [5],1.12
CCNCC.O=C(O)Cc1ccccc1Nc1c(Cl)cccc1Cl,NF-kB SEAP reporter activity,[1]; [4],1.15
same,NF-kB SEAP reporter activity,[1]; [5],0.921
CCNCC.O=C(O)Cc1ccccc1Nc1c(Cl)cccc1Cl (library stock concentration (final ~1000-fold dilution): 10 mM),NF-kB SEAP reporter activity,[2]; agonist: LPS (TLR4) 0.1 ug/mL,1.05
same,NF-kB SEAP reporter activity,[2]; [6],1.07
same,NF-kB SEAP reporter activity,[2]; [7],1.03
same,NF-kB SEAP reporter activity,[2]; [8],0.876
COc1cc(-n2c(S)nc3ccccc3c2=O)c(Cl)cc1Cl,NF-kB SEAP reporter activity,[1]; [4],0.851
same,NF-kB SEAP reporter activity,[1]; [5],0.953
COc1cc(-n2c(S)nc3ccccc3c2=O)c(Cl)cc1Cl (library stock concentration (final ~1000-fold dilution): 10 mM),NF-kB SEAP reporter activity,[2]; agonist: LPS (TLR4) 0.1 ug/mL,1.4
same,NF-kB SEAP reporter activity,[2]; [6],0.842
same,NF-kB SEAP reporter activity,[2]; [7],0.849
same,NF-kB SEAP reporter activity,[2]; [8],0.826
Cc1cc(C(=O)CN2CCCC2)c(C)n1-c1ccc(F)cc1,NF-kB SEAP reporter activity,[1]; [4],0.779
same,NF-kB SEAP reporter activity,[1]; [5],1.01
Cc1cc(C(=O)CN2CCCC2)c(C)n1-c1ccc(F)cc1 (library stock concentration (final ~1000-fold dilution): 10 mM),NF-kB SEAP reporter activity,[2]; agonist: LPS (TLR4) 0.1 ug/mL,0.816
same,NF-kB SEAP reporter activity,[2]; [6],0.569
same,NF-kB SEAP reporter activity,[2]; [7],1.03
same,NF-kB SEAP reporter activity,[2]; [8],0.942
CC1CCC/C=C/C2CC(O)CC2C(O)/C=C/C(=O)O1 (stereo unspecified),NF-kB SEAP reporter activity,[1]; [4],1.48
same,NF-kB SEAP reporter activity,[1]; [5],0.636
CC1CCC/C=C/C2CC(O)CC2C(O)/C=C/C(=O)O1 (stereo unspecified) (library stock concentration (final ~1000-fold dilution): 10 mM),NF-kB SEAP reporter activity,[2]; agonist: LPS (TLR4) 0.1 ug/mL,0.305
same,NF-kB SEAP reporter activity,[2]; [6],0.297
same,NF-kB SEAP reporter activity,[2]; [7],0.209
same,NF-kB SEAP reporter activity,[2]; [8],0.469

# From the supplement of paper PMC10037445
